In article PMC5892938 one finds binding signal (log2 fold change) data, which are given here for 74 sequences.

Some of the results follow. At the low end of the ranking the order means little.

For this assay, the target named is GST-SBP-SLBP (stem-loop binding protein) (UniProt Q14493). The experiment in a line: targeted RNA Bind-n-Seq.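 Further: DESeq read counts versus GST-SBP nonspecific binding control pulldown.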 The conditions noted are these: RBNS binding buffer: 25 mM Tris pH 7.5, 150 mM KCl, 3 mM MgCl2, 0.1% Tween, 0.5 mg/mL BSA, 1 mM DTT; 27 nM protein, 750 pM RNA pool; temperature not stated; high values mean tight binding.
As for “GGUCACGUCUCAAUCAACUCAUCUUCAGGAGUUUGCUCCUGCUUACUCAACAGCUCGCAGUCAAG”, the binding signal (log2 fold change) was determined as 0.0802. As for “GGUCACGUCUCAAUCAACUCAUUUUCCAGGGAAACCCCUGGUAUAUUCAACAGCUCGCAGUCAAG”, the figure is -0.028; as for “GGUCACGUCUCAAUCAACUCUACUCCAGGAGUUUACUCCUGUAUACUCAACAGCUCGCAGUCAAG”, -0.108; as for “GGUCACGUCUCAAUCAACUCAAUCUCAGGAGUUUGCUCCUGCAUUUUCAACAGCUCGCAGUCAAG”, 0.117. Then “GGUCACGUCUCAAUCAACUCAUUCCCCAGGGAAACCCCUGGCAAAUUCAACAGCUCGCAGUCAAG”, with 0.142; and “GGUCACGUCUCAAUCAACUCUACGCCAGGAGUUUUCUCCUGUAAUUUCAACAGCUCGCAGUCAAG”, with 0.0597; and “GGUCACGUCUCAAUCAACUCAUUUUCAGGAGUUUUCUCCUGCUAUUUCAACAGCUCGCAGUCAAG”, with 0.0208.

For the sequence “GGUCACGUCUCAAUCAACUCAAUGUCAGGAGUUUACUCCUGUUAAUUCAACAGCUCGCAGUCAAG”, the binding signal (log2 fold change) amounted to 0.217.

Consider “GGUCACGUCUCAAUCAACUCAUUUUCAGGAGUUUCCUCCUGUAGUCUCAACAGCUCGCAGUCAAG”, for which the binding signal (log2 fold change) is 0.0337. Then “GGUCACGUCUCAAUCAACUCAGUCUCCAGGGAAACCCCUGGCAAUUUCAACAGCUCGCAGUCAAG”, with -0.241; and “GGUCACGUCUCAAUCAACUCAACGCCAGGAGUUUUCUCCUGCAAUUUCAACAGCUCGCAGUCAAG”, with -0.0487.

For the sequence “GGUCACGUCUCAAUCAACUCUUUUCCAGGAGUUUACUCCUGUAUUUUCAACAGCUCGCAGUCAAG”, the binding signal (log2 fold change) amounted to 0.0243. Then “GGUCACGUCUCAAUCAACUCAUCCUCAGGAGUUUCCUCCUGUUAACUCAACAGCUCGCAGUCAAG”, with 0.238; and “GGUCACGUCUCAAUCAACUCUUCCUCCAGGGAAAACCCUGGUUAUCUCAACAGCUCGCAGUCAAG”, with 0.0493; and “GGUCACGUCUCAAUCAACUCAUUCUCAGGAGUUUUCUCCUGCUUAUUCAACAGCUCGCAGUCAAG”, with -0.0524. As for “GGUCACGUCUCAAUCAACUCCCUAGAGGGGGGGAAAACCCCUUUGCCCUCAAUGUCAACAGCUCGCAGUCAAG”, the figure is -0.498; as for “GGUCACGUCUCAAUCAACUCCCUCGAGGGGGGGAAAACCCCUUUACCCUCUACAUCAACAGCUCGCAGUCAAG”, -0.181. As for “GGUCACGUCUCAAUCAACUCAUCCCCCAGGGAAAUCCCUGGCAAUCUCAACAGCUCGCAGUCAAG”, the figure is -0.0951; as for “GGUCACGUCUCAAUCAACUCAGGUCCAGGAGUUUUCUCCUGCAAUUUCAACAGCUCGCAGUCAAG”, 0.192; as for “GGUCACGUCUCAAUCAACUCAAUUUCAGGAGUUUUCUCCUGUAUACUCAACAGCUCGCAGUCAAG”, 0.00499.

Consider “GGUCACGUCUCAAUCAACUCUCCAGAGGGGGGGAAAACCCCUUUACCCUCGUUUUCAACAGCUCGCAGUCAAG”, for which the binding signal (log2 fold change) came to 0.0731. Then “GGUCACGUCUCAAUCAACUCUAUCUCCAGGGAAAACCCUGGCAUGUUCAACAGCUCGCAGUCAAG”, with 0.238; and “GGUCACGUCUCAAUCAACUCAAUUUCAGGAGUUUCCUCCUGCUAAUUCAACAGCUCGCAGUCAAG”, with -0.0495; and “GGUCACGUCUCAAUCAACUCUAUUCCCAGGGAAAGCCCUGGUAUUUUCAACAGCUCGCAGUCAAG”, with 0.387.

With “GGUCACGUCUCAAUCAACUCGCAAGAGGGGGGGAAAACCCCUUUACCCUCAUAAUCAACAGCUCGCAGUCAAG”, the binding signal (log2 fold change) was -0.0816.

Consider “GGUCACGUCUCAAUCAACUCAUUCUCCAGGGAAAACCCUGGCAAAUUCAACAGCUCGCAGUCAAG”, for which the binding signal (log2 fold change) was -0.00223. Then “GGUCACGUCUCAAUCAACUCAAACGAGGGGGGGAAAACCCCUUUACCCUCAAAUUCAACAGCUCGCAGUCAAG”, with -0.207. Then “GGUCACGUCUCAAUCAACUCUACUUCCAGGGAAAGCCCUGGUUAUCUCAACAGCUCGCAGUCAAG”, with 0.295; and “GGUCACGUCUCAAUCAACUCAUUUCCCAGGGAAACCCCUGGCAAUCUCAACAGCUCGCAGUCAAG”, with -0.212. As for “GGUCACGUCUCAAUCAACUCAACUCCAGGAGUUUACUCCUGCUUUCUCAACAGCUCGCAGUCAAG”, the figure is -0.171; as for “GGUCACGUCUCAAUCAACUCUUAAGAGGGGGGGAAAACCCCUUUGCCCUCAAAUUCAACAGCUCGCAGUCAAG”, -0.142; as for “GGUCACGUCUCAAUCAACUCUAUCGCAGGAGUUUUCUCCUGGUAUCUCAACAGCUCGCAGUCAAG”, 0.106.

In the case of “GGUCACGUCUCAAUCAACUCUUUUUCCAGGGAAAUCCCUGGCAUAUUCAACAGCUCGCAGUCAAG”, the binding signal (log2 fold change) turned out to be 0.212. As for “GGUCACGUCUCAAUCAACUCAUCGCCAGGAGUUUUCUCCUGUUUUUUCAACAGCUCGCAGUCAAG”, the figure is -0.125; as for “GGUCACGUCUCAAUCAACUCAGUCUCAGGAGUUUUCUCCUGCUUUCUCAACAGCUCGCAGUCAAG”, -0.0208. Then “GGUCACGUCUCAAUCAACUCAAUCUCCAGGGAAACCCCUGGUAUACUCAACAGCUCGCAGUCAAG”, with -0.00295; and “GGUCACGUCUCAAUCAACUCUCACGAGGGGGGGAAAACCCCUUUGCCCUCACUAUCAACAGCUCGCAGUCAAG”, with 0.0894; and “GGUCACGUCUCAAUCAACUCAACUCCAGGAGUUUUCUCCUGCUAACUCAACAGCUCGCAGUCAAG”, with 0.162.

“GGUCACGUCUCAAUCAACUCAUUCUCAGGAGUUUGCUCCUGCUUUCUCAACAGCUCGCAGUCAAG”: the binding signal (log2 fold change) was 0.212. As for “GGUCACGUCUCAAUCAACUCUUCAGAGGGGGGGAAAACCCCUUUACCCUCCCAAUCAACAGCUCGCAGUCAAG”, the figure is -0.085; as for “GGUCACGUCUCAAUCAACUCUUCUUCCAGGGAAAACCCUGGCAUUCUCAACAGCUCGCAGUCAAG”, -0.155; as for “GGUCACGUCUCAAUCAACUCAUCCUCCAGGGAAAUCCCUGGUAUUCUCAACAGCUCGCAGUCAAG”, -0.0826.

As for “GGUCACGUCUCAAUCAACUCAUUCCCAGGAGUUUUCUCCUGCUAUUUCAACAGCUCGCAGUCAAG”, the binding signal (log2 fold change) was 0.00994. Then “GGUCACGUCUCAAUCAACUCUUCGCCCAGGGAAAUCCCUGGUUAUCUCAACAGCUCGCAGUCAAG”, with -0.26. In the case of “GGUCACGUCUCAAUCAACUCAUCGUCAGGAGUUUCCUCCUGUAAUUUCAACAGCUCGCAGUCAAG”, the binding signal (log2 fold change) was 0.136. Then “GGUCACGUCUCAAUCAACUCUUUCCCCAGGGAAAACCCUGGUUUUUUCAACAGCUCGCAGUCAAG”, with -0.101; and “GGUCACGUCUCAAUCAACUCCUCGGAGGGGGGGAAAACCCCUUUACCCUCAACCUCAACAGCUCGCAGUCAAG”, with -0.144; and “GGUCACGUCUCAAUCAACUCUAUCCCAGGAGUUUCCUCCUGCUUACUCAACAGCUCGCAGUCAAG”, with 0.136.

With “GGUCACGUCUCAAUCAACUCAUCCCCAGGAGUUUACUCCUGUUAUUUCAACAGCUCGCAGUCAAG”, the binding signal (log2 fold change) turned out to be 0.0213. On to “GGUCACGUCUCAAUCAACUCAUCGCCCAGGGAAAUCCCUGGUAUAUUCAACAGCUCGCAGUCAAG”, for which the binding signal (log2 fold change) amounted to 0.204. As for “GGUCACGUCUCAAUCAACUCUUCAGAGGGGGGGAAAACCCCUUUACCCUCCACGUCAACAGCUCGCAGUCAAG”, the figure is 0.12; as for “GGUCACGUCUCAAUCAACUCAAGUCCCAGGGAAAACCCUGGUUAAUUCAACAGCUCGCAGUCAAG”, -0.2; as for “GGUCACGUCUCAAUCAACUCAAUCCCCAGGGAAAGCCCUGGUUUACUCAACAGCUCGCAGUCAAG”, 0.167. Then “GGUCACGUCUCAAUCAACUCUACUUCCAGGGAAAGCCCUGGUAUAUUCAACAGCUCGCAGUCAAG”, with -0.0601. Regarding “GGUCACGUCUCAAUCAACUCAUCUCCAGGAGUUUACUCCUGCUAUCUCAACAGCUCGCAGUCAAG”, the binding signal (log2 fold change) was -0.18. As for “GGUCACGUCUCAAUCAACUCAUUCUCAGGAGUUUUCUCCUGCAAACUCAACAGCUCGCAGUCAAG”, the figure is 0.0324; as for “GGUCACGUCUCAAUCAACUCAAGUCCAGGAGUUUACUCCUGCUUUUUCAACAGCUCGCAGUCAAG”, 0.0827; as for “GGUCACGUCUCAAUCAACUCAUCUUCAGGAGUUUCCUCCUGUUUUUUCAACAGCUCGCAGUCAAG”, -0.19. Then “GGUCACGUCUCAAUCAACUCUUUUCCCAGGGAAAACCCUGGCAUACUCAACAGCUCGCAGUCAAG”, with 0.281. Then “GGUCACGUCUCAAUCAACUCAAUAGAGGGGGGGAAAACCCCUUUGCCCUCAUCAUCAACAGCUCGCAGUCAAG”, with -0.318. In the case of “GGUCACGUCUCAAUCAACUCUACUUCCAGGGAAAGCCCUGGCUUUUUCAACAGCUCGCAGUCAAG”, the binding signal (log2 fold change) is -0.509.

With “GGUCACGUCUCAAUCAACUCAUAAGAGGGGGGGAAAACCCCUUUGCCCUCACCUUCAACAGCUCGCAGUCAAG”, the binding signal (log2 fold change) is -0.385. Then “GGUCACGUCUCAAUCAACUCUACUUCAGGAGUUUGCUCCUGCAAUUUCAACAGCUCGCAGUCAAG”, with 0.0999. Then “GGUCACGUCUCAAUCAACUCAUCCCCAGGAGUUUUCUCCUGCUAAGUCAACAGCUCGCAGUCAAG”, with 0.167. Turning to “GGUCACGUCUCAAUCAACUCUUCGCCCAGGGAAAACCCUGGUAUUUUCAACAGCUCGCAGUCAAG”, the binding signal (log2 fold change) amounted to 0.0951.

For “GGUCACGUCUCAAUCAACUCCAAAGAGGGGGGGAAAACCCCUUUACCCUCAUCGUCAACAGCUCGCAGUCAAG”, the binding signal (log2 fold change) worked out at 0.000747. As for “GGUCACGUCUCAAUCAACUCUCUAGAGGGGGGGAAAACCCCUUUGCCCUCAACCUCAACAGCUCGCAGUCAAG”, the figure is -0.23; as for “GGUCACGUCUCAAUCAACUCAAUCGAGGGGGGGAAAACCCCUUUACCCUCUUUAUCAACAGCUCGCAGUCAAG”, 0.153. As for “GGUCACGUCUCAAUCAACUCAUCCCCAGGAGUUUACUCCUGCAUUUUCAACAGCUCGCAGUCAAG”, the figure is 0.239. Then “GGUCACGUCUCAAUCAACUCCAAAGAGGGGGGGAAAACCCCUUUACCCUCAUCCUCAACAGCUCGCAGUCAAG”, with -0.455. In the case of “GGUCACGUCUCAAUCAACUCUUCUCCAGGAGUUUACUCCUGUUAUCUCAACAGCUCGCAGUCAAG”, the binding signal (log2 fold change) was determined as 0.096.

In the case of “GGUCACGUCUCAAUCAACUCAUUUCCCAGGGAAACCCCUGGCAUUCUCAACAGCUCGCAGUCAAG”, the binding signal (log2 fold change) is -0.149. Then “GGUCACGUCUCAAUCAACUCAUCUUCCAGGGAAAUCCCUGGCUUUCUCAACAGCUCGCAGUCAAG”, with -0.0984; and “GGUCACGUCUCAAUCAACUCAACUCCCAGGGAAAACCCUGGCUAAUUCAACAGCUCGCAGUCAAG”, with 0.0461.
